“And” between values parts separate entries of the source, which are not always exact repeats. Equal entries are not always repeated.
How the values were obtained:
[1] = tested on: HFrEF patients with the ADRB1 Arg389Arg genotype at high risk for recurrent AF; assay: GENETIC-AF: time to symptomatic AF/AFL or ACM (Phase 3 primary endpoint); assay type: in vivo, human; conditions: for hazard ratio, Phase 3 (symptomatic AF/AFL or ACM): covariate adjusted
[2] = tested on: HFrEF patients with the ADRB1 Arg389Arg genotype with implanted Medtronic devices; assay: GENETIC-AF AF burden (AFB) device substudy: continuous monitoring, AF/AFL event = AF burden ≥6 hours per day; assay type: in vivo, human
[3] = tested on: HFrEF patients with the ADRB1 Arg389Arg genotype; assay: GENETIC-AF secondary and heart failure endpoints (VT/VF/SVT, hospitalization, ACM); assay type: in vivo; conditions: for ACM / ACM or HF hospitalization / ACM or HF hospitalization, number of patients / ACM, number of patients / HF hospitalization / HF hospitalization, number of patients: Total Study Period
[4] = Entire cohort, listed as Bucindolol
[5] = GENETIC-AF U.S. LVEF ≤0.35, 24 week follow-up
[6] = GENETIC-AF U.S. LVEF ≤0.35, bucindolol vs metoprolol, unadjusted
[7] = GENETIC-AF, all randomized patients
[8] = − PM (CYP2D6 PMs excluded), LVEF <0.39 or LVEF 0.39-0.49 with HF Duration - AF Duration >= −30 days

Structure (SMILES): CC(C)(Cc1c[nH]c2ccccc12)NCC(O)COc1ccccc1C#N (stereo not drawn) [bucindolol, 2-(3-(1-(1H-indol-3-yl)-2-methylpropan-2-ylamino)-2-hydroxypropoxy)benzonitrile]
- hazard ratio, Phase 3 (symptomatic AF/AFL or ACM) ([1]; Canada (n = 59)): 1.60
- hazard ratio, Phase 3 (symptomatic AF/AFL or ACM) ([1]; Entire cohort (n = 267)): 1.02
- hazard ratio, Phase 3 (symptomatic AF/AFL or ACM) ([1]; Europe (n = 81)): 1.04
- hazard ratio, Phase 3 (symptomatic AF/AFL or ACM) ([1]; U.S. (n = 127)): 0.73
- Time to symptomatic AF/AFL or ACM, difference in effectiveness ([1]; entire cohort, time to event curves): do not suggest a difference in effectiveness
- Reduction in AFB by bucindolol vs. metoprolol ([2]; 6-week intervals and entire 24-week period): not statistically significant
- AFB ± SD ([2]; Censored at ECV, AF ablation, Class 3 antiarrhythmic drugs, week 1(d1-7)): 4.8 ± 8.3
- AFB ± SD ([2]; Censored at ECV, AF ablation, Class 3 antiarrhythmic drugs, week 2): 7.1 ± 10.6
- AFB ± SD ([2]; Censored at ECV, AF ablation, Class 3 antiarrhythmic drugs, week 3): 7.4 ± 11.2
- AFB ± SD ([2]; Censored at ECV, AF ablation, Class 3 antiarrhythmic drugs, week 4): 8.5 ± 11.1
- AFB ± SD ([2]; Censored at ECV, AF ablation, Class 3 antiarrhythmic drugs, week 5): 7.8 ± 11.3
- AFB ± SD ([2]; Censored at ECV, AF ablation, Class 3 antiarrhythmic drugs, week 6): 7.8 ± 11.3
- AFB ± SD ([2]; Censored at ECV, AF ablation, Class 3 antiarrhythmic drugs, week 7): 6.7 ± 10.7
- AFB ± SD ([2]; Censored at ECV, AF ablation, Class 3 antiarrhythmic drugs, week 8): 7.0 ± 10.7
- AFB ± SD ([2]; Censored at ECV, AF ablation, Class 3 antiarrhythmic drugs, week 9): 6.0 ± 10.5
- AFB ± SD ([2]; Censored at ECV, AF ablation, Class 3 antiarrhythmic drugs, week 10): 5.6 ± 9.9
- AFB ± SD ([2]; Censored at ECV, AF ablation, Class 3 antiarrhythmic drugs, week 11): 7.2 ± 10.8
- AFB ± SD ([2]; Censored at ECV, AF ablation, Class 3 antiarrhythmic drugs, week 12): 7.4 ± 11.2
- AFB ± SD ([2]; Censored at ECV, AF ablation, Class 3 antiarrhythmic drugs, week 13): 5.4 ± 9.5
- AFB ± SD ([2]; Censored at ECV, AF ablation, Class 3 antiarrhythmic drugs, week 14): 4.7 ± 9.6
- AFB ± SD ([2]; Censored at ECV, AF ablation, Class 3 antiarrhythmic drugs, week 15): 2.7 ± 7.5
- AFB ± SD ([2]; Censored at ECV, AF ablation, Class 3 antiarrhythmic drugs, week 16): 3.9 ± 9.0
- AFB ± SD ([2]; Censored at ECV, AF ablation, Class 3 antiarrhythmic drugs, week 17): 4.0 ± 9.2
- AFB ± SD ([2]; Censored at ECV, AF ablation, Class 3 antiarrhythmic drugs, week 18): 3.5 ± 8.1
- AFB ± SD ([2]; Censored at ECV, AF ablation, Class 3 antiarrhythmic drugs, week 19): 3.1 ± 7.1
- AFB ± SD ([2]; Censored at ECV, AF ablation, Class 3 antiarrhythmic drugs, week 20): 3.1 ± 8.2
- AFB ± SD ([2]; Censored at ECV, AF ablation, Class 3 antiarrhythmic drugs, week 21): 1.6 ± 6.2
- AFB ± SD ([2]; Censored at ECV, AF ablation, Class 3 antiarrhythmic drugs, week 22): 1.6 ± 6.2
- AFB ± SD ([2]; Censored at ECV, AF ablation, Class 3 antiarrhythmic drugs, week 23): 1.7 ± 6.2
- AFB ± SD ([2]; Censored at ECV, AF ablation, Class 3 antiarrhythmic drugs, week 24): 2.0 ± 6.2
- Hazard ratio, time to first AF/AFL/ACM, bucindolol vs. metoprolol ([2]; DxT12/DTRI-2 cohort, device-based detection N=49): 0.59
- Hazard ratio, time to first device-detected AF/AFL/ACM event, bucindolol vs. metoprolol ([2]; U.S. AFB substudy cohort N=42): 0.49 and 0.50
- AFB ± SD ([2]; Uncensored, week 1(d1-7)): 4.8 ± 8.3
- AFB ± SD ([2]; Uncensored, week 2): 7.4 ± 10.7
- AFB ± SD ([2]; Uncensored, week 3): 7.9 ± 11.0
- AFB ± SD ([2]; Uncensored, week 4): 8.9 ± 11.1
- AFB ± SD ([2]; Uncensored, week 5): 8.9 ± 11.0
- AFB ± SD ([2]; Uncensored, week 6): 7.6 ± 10.6
- AFB ± SD ([2]; Uncensored, week 7): 7.5 ± 10.4
- AFB ± SD ([2]; Uncensored, week 8): 7.9 ± 10.6
- AFB ± SD ([2]; Uncensored, week 9): 6.1 ± 9.9
- AFB ± SD ([2]; Uncensored, week 10): 6.4 ± 10.0
- AFB ± SD ([2]; Uncensored, week 11): 7.3 ± 10.6
- AFB ± SD ([2]; Uncensored, week 12): 7.0 ± 10.8
- AFB ± SD ([2]; Uncensored, week 13): 5.6 ± 9.5
- AFB ± SD ([2]; Uncensored, week 14): 5.2 ± 9.1
- AFB ± SD ([2]; Uncensored, week 15): 3.5 ± 8.1
- AFB ± SD ([2]; Uncensored, week 16): 5.0 ± 9.6
- AFB ± SD ([2]; Uncensored, week 17): 3.9 ± 8.6
- AFB ± SD ([2]; Uncensored, week 18): 3.8 ± 8.0
- AFB ± SD ([2]; Uncensored, week 19): 5.0 ± 9.2
- AFB ± SD ([2]; Uncensored, week 20): 5.1 ± 9.9
- AFB ± SD ([2]; Uncensored, week 21): 4.4 ± 9.4
- AFB ± SD ([2]; Uncensored, week 22): 4.2 ± 8.9
- AFB ± SD ([2]; Uncensored, week 23): 3.7 ± 8.6
- AFB ± SD ([2]; Uncensored, week 24): 3.4 ± 8.0
- Hazard ratio, time to first AF/AFL/ACM, bucindolol vs. metoprolol ([2]; device substudy population assessed by clinic-based 12-lead ECGs): 0.69
- Hazard ratio, time to first device-detected AF/AFL/ACM event, bucindolol vs. metoprolol ([2]; entire AFB substudy cohort N=69, unadjusted): 0.75
- Hazard ratio, time to first device-detected AF/AFL/ACM event, bucindolol vs. metoprolol ([2]; ex-U.S. AFB cohort): 1.32
- Hazard ratio, AF burden substudy endpoint, bucindolol vs. metoprolol ([2]; interim analysis): 0.84
- AF/AFL/ACM or HF Hospitalization during Total Study Period ([3]; Entire cohort): (63.4%)
- Total All-cause Hospitalization during Total Study Period ([3]; Entire cohort): 2.8 ± 8.1 days/patient
- VT, VF or Sx SVT during the 24-Week Follow-up Period ([3]; Entire cohort): (1.5%)
- ACM ([3]; Entire cohort): (2.3%)
- ACM or HF hospitalization ([3]; Entire cohort): 8.2%
- ACM or HF hospitalization, number of patients ([3]; Entire cohort): 11
- ACM, number of patients ([3]; Entire cohort): 3
- HF hospitalization ([3]; Entire cohort): 7.5%
- HF hospitalization, number of patients ([3]; Entire cohort): 10
- ACM or HF hospitalization [3, 4]: (8%)
- HF hospitalization [3, 4]: (7.5%)
- ACM events [3, 5]: 0 (0%)
- ACM events/pts (%) [3, 5]: 0 (0%)
- ACM/CVH events [3, 5]: 3
- ACM/CVH events/pts (%) [3, 5]: 5.0%
- ACM/HFH events [3, 5]: 2
- ACM/HFH events/pts (%) [3, 5]: 3.3%
- CVH events [3, 5]: 3
- CVH events/pts (%) [3, 5]: 5.0%
- CVM events [3, 5]: 0 (0%)
- CVM events/pts (%) [3, 5]: 0 (0%)
- CVM/HFH events [3, 5]: 2
- CVM/HFH events/pts (%) [3, 5]: 3.3%
- HFH events [3, 5]: 2
- HFH events/pts (%) [3, 5]: 3.3%
- ACM/CVH HzR [3, 6]: 0.56
- ACM/HFH HzR [3, 6]: 0.74
- CVH HzR [3, 6]: 0.84
- CVM/HFH HzR [3, 6]: 2.21
- HFH HzR [3, 6]: 2.21
- All-cause hospitalization [3, 7]: 20.1%
- All-cause mortality [3, 7]: 2.3%
- Cardiovascular hospitalization [3, 7]: 12.7%
- Cardiovascular mortality [3, 7]: 0.7%
- Heart failure hospitalization [3, 7]: 6.7%
- Heart failure mortality [3, 7]: 0.0%
- AF/AFL/ACM or HF Hospitalization during Total Study Period ([3]; U.S.): (70.0%)
- Total All-cause Hospitalization during Total Study Period ([3]; U.S.): 3.3 ± 9.6 days/patient
- VT, VF or Sx SVT during the 24-Week Follow-up Period ([3]; U.S.): (1.7%)
- ACM ([3]; U.S.): (5.0%)
- ACM or HF hospitalization ([3]; U.S.): (13.3%)
- ACM or HF hospitalization, number of patients ([3]; U.S.): 8
- ACM, number of patients ([3]; U.S.): 3
- HF hospitalization ([3]; U.S.): (10.0%)
- HF hospitalization, number of patients ([3]; U.S.): 6
- All-cause hospitalization, % of patients ([3]; in vivo): (20%)
- All-cause hospitalization, number of patients ([3]; in vivo): 27
- Cardiovascular hospitalization, % of patients ([3]; in vivo): (13%)
- Cardiovascular hospitalization, number of patients ([3]; in vivo): 17
- Heart failure hospitalization, % of patients ([3]; in vivo): (7%)
- Heart failure hospitalization, number of patients ([3]; in vivo): 9
- Symptomatic SVT, % of patients ([3]; in vivo): (0%)
- Symptomatic SVT, number of patients ([3]; in vivo): 0
- VT >=15 sec or Required Therapy, % of patients ([3]; in vivo): (2%)
- VT >=15 sec or Required Therapy, number of patients ([3]; in vivo): 3
- Ventricular Flutter, % of patients ([3]; in vivo): (1%)
- Ventricular Flutter, number of patients ([3]; in vivo): 1
- All-cause mortality, % of patients ([3]; total study period): (2%)
- All-cause mortality, number of patients ([3]; total study period): 3
- Cardiovascular mortality, % of patients ([3]; total study period): (1%)
- Cardiovascular mortality, number of patients ([3]; total study period): 1
- Heart failure mortality, % of patients ([3]; total study period): (0%)
- Heart failure mortality, number of patients ([3]; total study period): 0
- ACM or HF hospitalization 24-wk f/u, % of patients [3, 8]: 4 (4%)
- ACM or HF hospitalization 24-wk f/u, number of patients [3, 8]: 4 (4%)
- ACM or HF hospitalization total f/u, % of patients [3, 8]: 9 (9%)
- ACM or HF hospitalization total f/u, number of patients [3, 8]: 9 (9%)
- ACM, total f/u (11.3 mos), % of patients [3, 8]: 2 (2%)
- ACM, total f/u (11.3 mos), number of patients [3, 8]: 2 (2%)
- All-cause mortality (ACM), 24-week f/u, % of patients [3, 8]: 0.0%
- All-cause mortality (ACM), 24-week f/u, number of patients [3, 8]: 0
- HF hospitalization 24-week f/u, % of patients [3, 8]: 4 (4%)
- HF hospitalization 24-week f/u, number of patients [3, 8]: 4 (4%)
- HF hospitalization total f/u, % of patients [3, 8]: 8 (8%)
- HF hospitalization total f/u, number of patients [3, 8]: 8 (8%)
